Experimental data reported in PubChem BioAssay AID463173 (ICCB-Longwood Screening Facility, Harvard Medical School, 2010).
The campaign covered roughly 52,000 compounds. About 4,300 (8.3%) were called active. No stated cut-off is given here; in the data, active means survival mostly below about 52% (no sharp cut-off); inactive means mostly above about 56%. This is one part of the list.

Tested on: DeltatarO mutant
Experiment: growth inhibition of S. aureus wild type versus tarO mutant, primary screen, teichoic acid synthesis inhibitors, RN4220, OD600 (AID 463173)
Conditions: OD600, 18 h, stronger effect = lower value, screened at 18.75 µg/mL (by protocol)

Row | SMILES | survival
1 | CC1(C(=O)NC2CCCCC2)Cc2ccccc2C(=O)N1Cc1ccccc1Cl (configuration not stated) | active: 43%
2 | CCc1ccc(OCc2nc(-c3ccc(OC)c(OC)c3)no2)c(Br)c1 | active: 33%
3 | O=C(OCc1ccccc1)Sc1nnc(-c2ccccc2Cl)o1 | inactive: 90%
4 | O=C(CCc1nc2cccnc2n1-c1ccccc1)Nc1ccc(Cl)c(Cl)c1 | inactive: 51%
5 | CN(C)c1ccc(C2C=C(c3ccccc3)Nc3nnnn32)cc1 (configuration not stated) | inactive: 52%
6 | CC(=O)c1ccc(N2C(=O)N(Cc3ccccc3C#N)c3ccccc3S2(=O)=O)cc1 | inactive: 91%
7 | CCOc1ccc(C(=O)NCC(c2ccc3c(c2)OCO3)N2CCOCC2)cc1 (configuration not stated) | inactive: 58%
8 | CCc1ccccc1N(C)C(=O)c1cn(-c2cccc(OC)c2)c(=O)c2ccccc12 | inactive: 61%
9 | O=S(=O)(c1ccc(Cl)c(Cl)c1)N1CCCCC1 | inactive: 75%
10 | O=C(Nc1ccc(F)cc1F)C1CCN(S(=O)(=O)c2ccc3[nH]c(=O)ccc3c2)CC1 | inactive: 83%
11 | CC1CC(NS(=O)(=O)c2cccs2)CC(C)(C)C1 (configuration not stated) | inactive: 95%
12 | CCc1ccc(NC(=O)Cn2nnc(C(=O)NCc3ccc(C)cc3)c2N)cc1 | inactive: 95%
13 | CCOC(=O)c1nc(Nc2ccccc2OC)c2ccccc2n1 | active: 44%
14 | COc1ccc(NCc2nnc(SCC(N)=O)n2-c2ccc(C)cc2)cc1 | inactive: 89%
15 | Cc1cn2c(=O)cc(COc3ccc(NC(=O)c4ccccc4C)cc3)nc2s1 | inactive: 138%
16 | CCCOc1ccc(-c2nc(N3CCCCC3)c3ccccc3n2)cc1 | active: -2%
17 | Cc1nn(C)c2c1c(C(F)(F)F)cc(=O)n2CC(=O)N1CCCCC1C (configuration not stated) | inactive: 91%
18 | CCCCN(CC)C(=O)c1cc2c(=O)n3ccccc3nc2n1C | inactive: 50%
19 | COc1cc(-c2noc(-c3ccc(NCc4ccco4)c([N+](=O)[O-])c3)n2)cc(OC)c1OC | active: 49%
20 | Cc1oc2ccc(O)c(CN3CCCCC3)c2c1C(=O)Nc1cccc(C(F)(F)F)c1 | inactive: 52%
21 | Cc1c(C(=O)Nc2ccc(F)c(Cl)c2)oc2ccc(S(=O)(=O)N(C)C3CCCCC3)cc12 | inactive: 80%
22 | Cc1ccc(-n2ncc(C(=O)Nc3ccc4c(c3)OCO4)c2C2CCN(C(=O)OC(C)(C)C)CC2)c(C)c1 | inactive: 118%
23 | CC(C)(C)c1ccc(S(=O)(=O)c2cn(CC(=O)Nc3ccccc3)c3ccccc3c2=O)cc1 | inactive: 78%

Row | SMILES | survival
24 | Cc1cccc(CCNC(=O)c2cnc3c(C)cccn3c2=O)c1 | inactive: 89%
25 | Cc1ccc(CNC(=O)c2ccc3c(c2)N(Cc2ccccc2)C(=O)c2ccccc2S3(=O)=O)cc1 | inactive: 74%
26 | COc1ccccc1CNC(=O)Cc1csc2nc(-c3ccccc3)cn12 | inactive: 75%
27 | CC1(CCC(=O)O)NNC(=S)NN1 | inactive: 80%
28 | O=C(CCC1N=C2c3ccccc3N=C(SCc3ccccc3F)N2C1=O)NCCc1ccccc1 (configuration not stated) | inactive: 70%
29 | Cc1cc(C)c(NC(=O)Cn2ccn(-c3cccc(Cl)c3)c(=O)c2=O)c(C)c1 | inactive: 57%
30 | COC(=O)C1CCN(CC(=O)Nc2cc(C)c3c(=O)oc4ccccc4c3n2)CC1 | inactive: 83%
31 | COc1ccc(N(C(=O)c2cccc(C)c2)S(=O)(=O)c2ccc(C)cc2)cc1 | inactive: 72%
32 | O=C(Nc1nnc(S(=O)(=O)N2CCCc3ccccc32)s1)c1cccc(F)c1 | active: 7%
33 | Cc1ccc2c(c1)N(C(=O)C1CCN(S(=O)(=O)c3c(C)noc3/C=C/c3ccccc3F)CC1)CCO2 | inactive: 71%
34 | CCn1c(SCc2ccc(F)cc2Cl)nnc1-c1nonc1NC(C)=O | inactive: 106%
35 | CCOC(=O)c1ccc(NC(=O)c2c(C)nn(-c3ccc(F)cc3)c2-n2cccc2)cc1 | inactive: 80%
36 | COc1cc2[nH]c(=O)n(Cc3ccc(C(=O)N4CCN(c5cc(Cl)ccc5C)CC4)cc3)c(=O)c2cc1OC | inactive: 58%
37 | O=S(=O)(NCCc1ccccc1)c1cccs1 | inactive: 95%
38 | COc1ccc(N(Cc2cccs2)C(=O)c2ccc(C(C)(C)C)cc2)cc1 | inactive: 72%
39 | O=C(NCC(c1ccc2c(c1)OCO2)N1CCOCC1)C(=O)Nc1ccc(F)cc1F (configuration not stated) | inactive: 131%
40 | O=C(Cn1cnc2c(oc3ccccc32)c1=O)Nc1ccc(OC(F)(F)F)cc1 | inactive: 83%
41 | COc1nc2nonc2nc1OC | inactive: 86%
42 | O=C(CN1C(=O)CC(c2ccco2)Sc2ccccc21)Nc1ccc(C(F)(F)F)cc1 (configuration not stated) | inactive: 68%
43 | C1Cc2nnc3c4c(nnc(c24)C1)CCC3 | inactive: 88%
44 | CCc1ccccc1NC(=O)Nc1nnc(N(C)Cc2ccccc2)s1 | inactive: 60%
45 | CCOc1ccc(C(=O)N2CCC(C)CC2)cc1 | inactive: 74%
46 | COc1cccc(-c2nnc(-c3ccc(C)o3)o2)c1 | inactive: 58%

Row | SMILES | survival
47 | Clc1ccc(N2CCN(c3ncnc4c3cnn4-c3ccccc3)CC2)cc1Cl | inactive: 67%
48 | Cn1c(=O)c2c(nc(NN=C3CCCCC3)n2C)n(C)c1=O | inactive: 103%
49 | COc1ccc(NC(=O)c2cc(S(=O)(=O)N3CCCCCC3)cn2C)cc1Cl | inactive: 77%
50 | COc1ccc(CNC(=O)CCNS(=O)(=O)c2cccc3nsnc23)cc1 | inactive: 54%
51 | CCOc1ccccc1CNC(=O)c1ccc(NC(=O)N2CCSc3ncccc32)cc1 | inactive: 79%
52 | COc1ccc(OC)c(CNC(=O)Cn2nc(C)c3nn(-c4ccc(Cl)cc4)c(C)c3c2=O)c1 | inactive: 83%
53 | COc1ccc2oc(=O)c(-c3cn4c(n3)sc3cc(OC)ccc34)cc2c1 | inactive: 54%
54 | COc1ccc(OC)c(NC(=O)c2ccccc2)c1 | inactive: 105%
55 | COc1ccc2c(Sc3ccccc3)c(C(=O)NCCCN3CCCCC3)[nH]c2c1 | inactive: 54%
56 | COc1ccc(/C=C/C(=O)Nc2nc3n(n2)C(c2ccccc2)C=C(c2ccc(Cl)cc2)N3)cc1 (configuration not stated) | inactive: 77%
57 | O=C(CSC1=NC(=O)C(c2ccccc2)C(=O)N1)Nc1nncs1 (configuration not stated) | inactive: 70%
58 | CN(C)c1ncnc(Cl)c1N | inactive: 60%
59 | CCC(C)Sc1oc(-c2ccco2)nc1S(=O)(=O)c1ccc(C)cc1 (configuration not stated) | active: 18%
60 | COc1cccc(C2C(C(=O)Nc3ccc(Cl)cc3)=C(C)Nc3nc4ccccc4n32)c1 (configuration not stated) | inactive: 53%
61 | COc1ccccc1C1Nc2c(sc3nc(C)cc(C)c23)C(=O)N1c1ccccc1 (configuration not stated) | inactive: 66%
62 | COc1cccc(CC(=O)Nc2ccc(-c3nc4ccccc4s3)cc2)c1 | active: 0%
63 | COc1ccc(Cl)cc1NC(=O)c1nnn(Cc2cccc(C(F)(F)F)c2)c1N | inactive: 122%
64 | COc1ccc2c(c1)c1c(c(=O)n(-c3ccc(C)cc3)c(=O)n1CC(=O)NCc1ccc(C)cc1)n2C | inactive: 94%
65 | COc1ccc(OCC(=O)Nc2cc(-c3nc4ccccc4s3)ccc2C)cc1 | active: 45%
66 | CCc1nnc(NC(=O)CN2CCN(c3ccccc3)CC2)s1 | inactive: 76%
67 | Cc1cccc(N2CCN(S(=O)(=O)c3ccc(-c4cc(C(F)(F)F)on4)s3)CC2)c1C | inactive: 101%
68 | Cc1ccccc1OCC(=O)Nc1ccc2nc(SCC(=O)N3CCc4ccccc43)sc2c1 | inactive: 56%
69 | O=C(C1CCCN(S(=O)(=O)c2ccc(Br)s2)C1)N1CCN(c2cccc(Cl)c2)CC1 (configuration not stated) | inactive: 99%

Row | SMILES | survival
70 | CNc1ccc(-c2nc(-c3ccco3)no2)cc1[N+](=O)[O-] | inactive: 53%
71 | CC(C)NC(=O)c1cc(-c2ccccc2)on1 | inactive: 98%
72 | Cc1ccccc1NC(=O)c1ccc2c(O)c(S(=O)(=O)c3ccccc3)c(=O)[nH]c2c1 | inactive: 69%
73 | CC(=O)Oc1cccc(NC(=O)CC2SC(N)=NC2=O)c1 (configuration not stated) | inactive: 96%
74 | Cc1cc2c(cc1C)NC(CC(=O)Nc1cccc(Cl)c1)C(=O)N2 (configuration not stated) | inactive: 65%
75 | NS(=O)(=O)c1ccc(CCNC(=O)Cn2c(-c3cccs3)cc3ccccc32)cc1 | inactive: 107%
76 | C=CCN1CCN(C(c2ccccc2)c2nnnn2CCC(C)C)CC1 (configuration not stated) | inactive: 94%
77 | O=C(NCC(c1ccc2c(c1)OCO2)N1CCOCC1)C(=O)Nc1ccccc1 (configuration not stated) | inactive: 81%
78 | CCN(CC)c1ccc(NC(=O)CCc2nc3cccnc3n2Cc2cccs2)c(C)c1 | inactive: 51%
79 | O=C(NCCc1ccccc1)c1ccc(CS(=O)(=O)Cc2ccccc2Cl)o1 | inactive: 87%
80 | CCc1ccc(NC(=O)CN2C(=O)CCSc3ccccc32)cc1 | inactive: 86%
81 | Cc1cc(=O)n(CC(=O)NCc2ccc(OC(C)C)cc2)c2c1c(C)nn2-c1cccc(F)c1 | inactive: 77%
82 | Cc1cc(C)cc(NS(=O)(=O)c2ccc(N3CCCCS3(=O)=O)cc2)c1 | inactive: 76%
83 | C=COCCn1c(-c2nonc2N)nc2ccccc21 | inactive: 80%
84 | CNC(=O)NCCN1CCCC1=O | inactive: 64%
85 | COc1ccc(CCNC(=O)c2c(C)oc3ncnc(N4CCOCC4)c23)c(OC)c1 | inactive: 101%
86 | Cc1cc(C)cc(Nc2cc(C(=O)NC3CCC(C)CC3)c3ccccc3n2)c1 (configuration not stated) | inactive: 106%
87 | Cc1ccc(S(=O)(=O)Nc2cc3c(cc2C)n(C)c(=O)c(=O)n3C)c(C)c1 | inactive: 76%
88 | Cn1nnnc1SCCCNCc1ccc(-c2ccc(F)c(Cl)c2)o1 | inactive: 82%
89 | CCc1nc(-c2cc(S(=O)(=O)N3CCN(c4ccccc4F)CC3)ccc2OC)no1 | active: 42%
90 | CCCN1C(C(=O)c2ccccc2)=C(OC(=O)c2ccc(OC)cc2)c2ccccc2S1(=O)=O | inactive: 56%
91 | O=C(Cn1c(=O)c(C(F)(F)F)nc2ccccc21)Nc1cccc(Br)c1 | inactive: 99%
92 | CC(C)(C)C(=O)NC1CCN(CC(=O)N(C2CCCCC2)C2CCCCC2)CC1 | inactive: 72%
